According to PubChem BioAssay (NCI):
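Values below derive from 48-hour exposures of cells grown in 96-well plates, with endpoints linearly interpolated between the two concentrations bracketing the appropriate inhibition level. At the GI50, growth is halved. At the TGI there is no net growth.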

What follows are molecules tested on NCI-H322M lung (assay: inhibition of tumour cell growth, NCI panel, 48 h).

Row | Compound | TGI [µM] | GI50 [µM]
1 | CCN(CC)C(=S)N/N=C(/c1ccccc1)c1ccccn1 | 51.6 | 
2 | O=C1c2cc3c(cc2-c2c1c1ccc(Cl)cc1c(=O)n2CCCn1ccnc1)OCO3 | > 100 | 0.0554
3 | CCOC(=O)/C=C/c1cccc(F)c1 | > 100 | 
4 | O=C(/C=C/C12c3ccccc3C(c3ccccc31)C1C(=O)NC(=O)C12)c1ccccc1 (stereo not given) | 3.35 | 1.64
5 | NC(=O)NN=C1Cc2ccccc2C1 | > 100 | 
6 | COC(C)C(O)(C(=O)OCC1=CCN2CCC(O)C12)C(C)(C)O (stereo not given) | > 100 | 
7 | CCOC(=O)c1c(-c2ccccc2)c(OC)cn1C | > 10 | 
8 | CC1(C)CCC[C@]2(C)c3ccccc3C(=O)CC12 (stereo not given in full) | > 100 | 54
9 | Nc1c(N2CCOCC2)c(=O)nc2[nH]/c(=C\c3ccccc3O)c(=O)n12 | > 100 | 
10 | C[C@]12C[C@H](O)[C@H]3[C@@H](CCC4=CC(=O)CC[C@@]43C)[C@@H]1CC[C@@H]2c1csc(-c2ccccc2)n1 | > 100 | 
11 | C=C1C(=O)O[C@H]2C[C@@H]1C(=O)CC(C)CCCC(C)=CCC[C@@]2(C)O (stereo not given in full) | > 25 | 
12 | COc1ccc(C2c3cc4c(cc3OC(Nc3ccccc3)C2C)OCO4)cc1 (stereo not given) | > 100 | 
13 | N#Cc1c(-c2ccc([N+](=O)[O-])cc2)c(C#N)c(=O)n(NS(=O)(=O)c2ccccc2)c1O | > 100 | 
14 | N#Cc1cc(S(=O)(=O)Nc2nc3ccccc3o2)c(SCc2ccccc2)cc1Cl | 75.6 | 32.1
15 | CC1(C)OCC(C2OC(C)(C)OC2[C@H]2O[C@@]3(O)[C@H]4[C@H](C=CC[C@@H]42)[C@@H](OCc2ccccc2)[C@H](OCc2ccccc2)[C@H]3OCc2ccccc2)O1 (stereo not given in full) | > 100 | 
16 | COc1cc(/C=C2\CCCC3=C2N=C2SC(C)=NN2C3c2cc(OC)c(OC)c(OC)c2)cc(OC)c1OC (stereo not given) | > 100 | > 100
17 | CC/C=N\N1C(N)=C(C#N)C(C#N)(C#N)C1CC (stereo not given) | > 100 | 
18 | C=C(C)[C@H]1CC23C(=O)[C@@](C)(C[C@H]2C1(C)C)C(=O)C(C(=O)C(C)C)=C3O | 49 | 
19 | O=C(Nc1nn(C(=O)c2cccnc2)c(=O)s1)c1ccc(Cl)cc1 | > 100 | 
20 | N#CCCN(CCC#N)c1ccc(C(N=Nc2ccccc2)=Nc2ccc(F)cc2)cc1 | > 100 | 
21 | N#Cc1cccc(C2C3=C(COC3=O)N(CCO)c3cc4c(cc32)OCO4)c1 (stereo not given) | > 50 | 3.14
22 | O=C(Nc1cccc(C(F)(F)F)c1)Oc1ccc(Cl)c2cccnc12 | 10.4 | 2.72
23 | CCN(Cc1c(F)cccc1Cl)c1ccc(CO)c(Cl)c1 | 12.5 | 2.28

Row | Compound | TGI [µM] | GI50 [µM]
24 | CC(C)=CCc1c(O)cc2oc(-c3ccc(O)cc3O)cc(=O)c2c1O | > 100 | 
25 | O=C(c1ccco1)N(C(=O)N1CCC(c2ccccc2)CC1)c1ccccc1 | > 100 | 
26 | Cc1ccc(C)c(COCCOCn2cc(N3CCOCC3)c(=O)[nH]c2=O)c1 | > 100 | 
27 | CN1C2=Nc3n(c4ccccc4[n+]3C)CN2c2ccccc21 | > 100 | 
28 | CC(C)c1ccc(NC(=O)Cc2ccc(Nc3ncnc4cc(-c5cnn(CCN(C)C)c5)ccc34)cc2)cc1 | 5.06 | 1.82
29 | COC(=O)N/N=C(\C)CC(=O)Nc1ccc(Cl)cc1 | > 100 | 
30 | O=C(c1ccc([N+](=O)[O-])cc1)N1CCCC1 | > 100 | 
31 | CCOC(=O)CN1C(=O)c2cc([N+](=O)[O-])cc3cc([N+](=O)[O-])cc(c23)C1=O | > 100 | 
32 | O/N=C/c1ccc(O)c(O)c1 | > 100 | 
33 | COC(=O)N[C@H]1CCc2c(Cl)c(OC)c(OC)c(OC)c2-c2ccc(SC)c(=O)cc21 | > 100 | < 0.01
34 | C=CN(C=C)C(=O)Cn1cc(-c2ccccc2)nn1 | > 100 | 
35 | Cc1cc(-c2cc(C(C)(C)C)c(O)c(C(C)(C)C)c2)c(C)cc1-c1cc(C(C)(C)C)c(O)c(C(C)(C)C)c1 | > 100 | 
36 | NC(=O)c1ccc[n+](C2=C([O-])c3ccccc3C(=O)/C2=N\S(=O)(=O)c2ccccc2)c1 | 29.5 | 
37 | CCC1(CC)C(=O)N(C(=O)c2cc(OC)c(OC)c(OC)c2)N(C(=O)c2cc(OC)c(OC)c(OC)c2)C1=O | > 50 | 
38 | O=P(O)(O)OCC1OC(n2cnc3c(NCc4ccccc4)ncnc32)C(O)C1O (stereo not given) | > 100 | 2.18
39 | Cc1cc(S(=O)(=O)N=C2Nc3cccc4cccc(c34)N2)c(S)cc1Cl | > 100 | 
40 | CS(=O)(=O)N(c1cc(-c2ccc3ncnc(Nc4ccc(F)c(Cl)c4)c3c2)cnc1Cl)S(C)(=O)=O | 4.6 | 0.961
41 | c1ccc(OC2=NC3=S(S2)SC(Oc2ccccc2)=N3)cc1 | 37 | 
42 | CC(=O)[CH-]C(=O)c1ccccc1.CC(=O)[CH-]C(=O)c1ccccc1.[O-]c1ccc2c(c1)OCO2.[O-]c1ccc2c(c1)OCO2.[Ti+4] | > 100 | 39.8
43 | O=C1NC(c2ccccc2)C2(C(=O)O)CN(C3CC3)c3cc(N4CCNCC4)c(F)cc3C2N1 (stereo not given) | > 100 | > 100
44 | CC1=NN2C(=N)/C(=C/c3ccc(F)cc3)C(=O)N=C2S1 | > 100 | 
45 | CCOC(=O)N1CCN(c2c(N)nc(C)[nH]c2=O)CC1 | > 100 | 
46 | CO[C@@]1(c2ccccc2)O[C@H]2OCCC2[C@H]1c1ccc(Cl)cc1 (stereo not given in full) | > 100 | 
